Reference: publication PMC4336329 (PLoS ONE, 2015)
The whole screen tested about 310,000 compounds, of which about 14,000 (4.5%) showed an effect of 50% or more. The effect is printed as a negative number. The list shows a part of the results.

Molecular target: human ether-à-go-go-related gene (hERG) potassium channel (human, UniProt Q12809)
Test: primary screen, population patch clamp on CHO cells stably expressing hERG
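Further: peak tail current of the secondary pulse compared with the same well before compound.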

human ether-à-go-go-related gene (hERG) potassium channel, sequence (Q12809 whole entry, looked up): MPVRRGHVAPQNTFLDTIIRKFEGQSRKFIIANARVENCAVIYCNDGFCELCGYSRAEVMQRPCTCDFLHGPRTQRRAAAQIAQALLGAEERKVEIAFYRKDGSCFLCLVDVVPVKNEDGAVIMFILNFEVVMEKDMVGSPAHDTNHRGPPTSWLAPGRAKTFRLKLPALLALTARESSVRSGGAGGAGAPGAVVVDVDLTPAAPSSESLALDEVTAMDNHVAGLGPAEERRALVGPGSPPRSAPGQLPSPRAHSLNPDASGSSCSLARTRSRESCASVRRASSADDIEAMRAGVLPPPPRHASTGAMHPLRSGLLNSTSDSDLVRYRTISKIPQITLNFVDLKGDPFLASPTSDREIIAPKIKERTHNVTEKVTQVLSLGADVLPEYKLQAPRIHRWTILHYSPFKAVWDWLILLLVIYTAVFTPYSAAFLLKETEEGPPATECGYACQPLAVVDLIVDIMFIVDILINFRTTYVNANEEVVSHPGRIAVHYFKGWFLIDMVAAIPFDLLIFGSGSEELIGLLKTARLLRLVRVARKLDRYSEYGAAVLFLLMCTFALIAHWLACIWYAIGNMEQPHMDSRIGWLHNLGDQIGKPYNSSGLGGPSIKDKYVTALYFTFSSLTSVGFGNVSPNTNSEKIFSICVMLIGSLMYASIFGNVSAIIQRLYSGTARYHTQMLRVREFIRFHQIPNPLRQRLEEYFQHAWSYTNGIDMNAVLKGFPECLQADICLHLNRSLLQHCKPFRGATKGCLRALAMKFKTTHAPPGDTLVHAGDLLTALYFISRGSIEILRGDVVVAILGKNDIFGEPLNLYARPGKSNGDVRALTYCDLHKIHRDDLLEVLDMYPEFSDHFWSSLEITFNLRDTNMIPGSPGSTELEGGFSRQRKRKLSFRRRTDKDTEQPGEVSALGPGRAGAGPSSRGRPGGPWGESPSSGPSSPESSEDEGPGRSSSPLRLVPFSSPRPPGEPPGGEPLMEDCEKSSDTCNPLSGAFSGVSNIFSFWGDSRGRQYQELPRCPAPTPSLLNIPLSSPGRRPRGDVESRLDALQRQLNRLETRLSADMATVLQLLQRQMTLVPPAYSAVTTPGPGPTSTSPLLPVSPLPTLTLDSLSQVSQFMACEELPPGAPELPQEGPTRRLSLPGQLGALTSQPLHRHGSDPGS

| SMILES | hERG current change (%, negative = inhibition) at 10uM [%] |
| --- | --- |
| O=C1NC2(CCCCC2)N=C1c1ccc(F)cc1 | -2.35 |
| CCC(=NC1CCN(Cc2ccccc2)CC1)c1c(O)[nH]c(=O)[nH]c1=O | -52.4 |
| COC(=O)c1ccc(C2Nc3cccc4cccc(c34)N2)cc1 | -5.77 |
| COc1cccc2c1cc1c(=O)n(CC(=O)NCc3ccccn3)nc(C)n12 | 13.4 |
| CCCC(=O)Nc1ccc(Cl)c(NC(=O)CC)c1 | 4.92 |
| Cc1ccnc(NC(=O)c2ccco2)n1 | 3.69 |
| CCc1nnc(NS(=O)(=O)c2ccc(NC(=O)c3cccc(Cl)c3)cc2)s1 | 2.1 |
| CN(C)S(=O)(=O)c1cccc(NC(=O)COc2nc3ccccc3nc2N2CCOCC2)c1 | -22.4 |
| CC(C)N(C(=O)c1ccc2nc(-c3ccccc3)c(-c3ccccc3)nc2c1)C(C)C | -4.73 |
| Cc1nc(=O)c(-c2ccccc2)c(C)n1-c1ccc(C(=O)O)cc1 | 10.1 |
| COCCn1c(=NC(=O)CCS(=O)(=O)c2ccccc2)sc2cc(C)ccc21 | 0.609 |
| CC(=O)NCCC(=O)NCc1ccc(F)cc1 | -13.7 |
| NC(=O)c1cc(S(=O)(=O)NCCCc2ccco2)cs1 | 12.8 |
| COc1ncc(-c2ccc3c(c2)S(=O)(=O)c2cccc(C(=O)NCc4ccco4)c2C3=O)cn1 | 0.598 |
| Cc1cc(C(=O)NCc2ccco2)no1 | 10.2 |
| COC(=O)c1sc2nc(SCc3ccccc3C)n(N)c(=O)c2c1C | 10.7 |
| O=S(=O)(c1cccc(-c2nnc(SC(F)F)n2-c2ccccc2)c1)N1CCCCC1 | -30.3 |
| Cc1cc(-c2nc(C)c(-c3nnc(SCC(=O)Nc4cc(Cl)cc(Cl)c4)n3C)s2)no1 | 5.93 |
| O=C(Nc1ccc(S(=O)(=O)N2CCCC2)cc1)c1c(F)cccc1F | 7.76 |
| CCOC(=O)c1c(CN2CCOCC2)n(C)c2cc(Br)c(O)c(CN(C)C)c12 | -27.4 |
| Cn1c(O)c(N=Nc2ccc(S(=O)(=O)N3CCOCC3)cc2)c(=O)n(C)c1=O | 10.8 |
| O=C(CCc1ccccc1)Nc1cc(Cl)ccc1O | -3.5 |
| Cc1cccc(CC2CC(=O)N(c3ccccc3)C2=O)c1 (stereo not shown) | -1.28 |

| SMILES | hERG current change (%, negative = inhibition) at 10uM [%] |
| --- | --- |
| COc1ccc(NC(=O)CS(=O)CC(=O)Nc2ccc(F)cc2F)cc1 (stereo not shown) | -24.7 |
| O=C(c1cc2cc(Br)ccc2oc1=O)N1CCCC1 | -16.2 |
| Cc1onc(C(=O)N2CCN(Cc3ccccc3)CC2)c1[N+](=O)[O-] | -10.7 |
| O=C(NCCCN1CCOCC1)C1CCN(S(=O)(=O)c2c(Cl)cccc2Cl)CC1 | -9.04 |
| O=C(NC1CC1)c1cc2c(F)cccc2s1 | -42.1 |
| O=C(O)c1cnc2[nH]c3ccccc3n2c1=O | 0.816 |
| Fc1ccc(CN2CCN(C(c3ccccc3)c3ccccc3)CC2)cc1.O=C(O)C(=O)O | 15 |
| CC(C)NC(=O)N1c2ccccc2Sc2ccccc21 | 13.2 |
| CCOC(=O)c1ccc(NC(=O)c2ccccc2[N+](=O)[O-])cc1 | -8.35 |
| CN1CCc2c(sc(N)c2C(=O)O)C1 | 20.8 |
| CC(C)(C)NC(=O)C(c1ccncc1)N(Cc1ccc(F)cc1)C(=O)c1ccc(-c2ccccc2)[nH]1 (stereo not shown) | 12.7 |
| CCCN1CCC(NC(=O)CCc2nnc(Cc3cc(OC)ccc3OC)o2)CC1 | 20.6 |
| Cc1sc2nc3c4ccccc4c(NCc4ccco4)nn3c(=O)c2c1C | -56.6 |
| OCCC1CN(Cc2cnc(-c3ccccc3)s2)CCN1C1CCCCC1 (stereo not shown) | -51.4 |
| Cc1ccc(/C=C2\C(=N)N3N=C(CC(=O)N4CCOCC4)SC3=NC2=O)o1 | 12.2 |
| CC(C)OC(=O)CSc1nnc(CNc2nc(-c3ccccc3)cs2)n1C | -20.4 |
| O=C(NCN1CCN(c2ccccc2F)CC1)c1cccnc1 | -5.7 |
| N/C(Cc1cccs1)=N\OC(=O)COc1ccc(Cl)cc1Cl | -14.8 |
| Cc1nc2sc3c(c2c(=O)n1NC(=O)CCBr)CCCC3 | 5.16 |
| O=C(Cn1nc(Cl)nc1Cl)c1ccccc1 | -2.26 |
| O=C(NNC1=Nc2cccc3cccc1c23)c1ccccc1Br | 5.44 |
| CC12CCC(=O)N1C(C(=O)Nc1nc(-c3ccc(F)c(F)c3)cs1)CS2 (stereo not shown) | 22.7 |
| O=c1c2ccccc2[nH]c(=S)n1C1CCCCC1 | 24.4 |

| SMILES | hERG current change (%, negative = inhibition) at 10uM [%] |
| --- | --- |
| CCOC(=O)c1cc(C)sc1/N=C/C1C(=O)CC(C)(C)CC1=O | -1.26 |
| CCCOc1ccc(C(=O)CCN2CCCCC2)cc1.Cl | -31.6 |
| O=S(=O)(NC1=NCCC1)c1cccs1 | 3.23 |
| S=c1nc(C2COc3ccccc3O2)[nH][nH]1 (stereo not shown) | 27.7 |
| CCN(CC(=O)NCc1ccc(Cl)cc1)Cc1cc(=O)n2ccsc2n1 | -42.2 |
| CCOC(=O)C(C)n1cnc2c(nnn2Cc2ccc(C)cc2)c1=O (stereo not shown) | 1.29 |
| O=C(O)c1cc(-c2ccc(Cl)cc2)n(-c2ccc(F)cc2)n1 | 3.09 |
| CCCn1c(C(C)NC(=O)c2ccccc2)n[nH]c1=S (stereo not shown) | 12.7 |
| Cc1c([N+](=O)[O-])cc(C(=O)Nc2ccc(NC(=O)c3ccco3)cc2)cc1[N+](=O)[O-] | 17.2 |
| COc1ccc(C(=O)NCC(=O)N2CCCCC2)cc1OC | 36.2 |
| Nc1nc(NCC(=O)O)nc(N2CCCCCC2)c1[N+](=O)[O-] | 5.52 |
| CC1(C)CC(C(N)=S)CCO1 (stereo not shown) | 26.5 |
| COc1cccc(NC(=O)CN(C)C(=O)c2cc3c(s2)CCC3)c1 | 17.8 |
| CCc1nonc1NC(=O)c1oc2ccc(F)cc2c1C | 15.6 |
| COc1ccc(/C=C(\C#N)c2nc3ccc(C)cc3[nH]2)cc1Oc1ccc(C(F)(F)F)cc1[N+](=O)[O-] | 15.4 |
| Cc1cccc(C)c1NC(=O)/C(C#N)=C/c1ccc(-c2ccc(C(=O)O)cc2)o1 | -3.38 |
| Br.O=C(Cn1c(NCCCO)nc2ccccc21)c1ccc(Br)cc1 | -24.7 |
| CC(=O)Nc1ccc(NC(=O)C(NS(=O)(=O)c2cccc3nsnc23)C(C)C)cc1 (stereo not shown) | 31.5 |
| CCCCCCCn1c(C)nnc1-c1cnn(C)c1N | 8.24 |
| COc1cc(-c2nc3cccc(C)n3c2NCC2CCCO2)ccc1O (stereo not shown) | -51.4 |
| COc1ccc(-c2c(N)n[nH]c2C)cc1OC | 6.13 |
| C=CCOc1ccc(C(=O)n2cc(C(=O)OC)c3ccccc32)cc1 | 9.62 |
| CC1CC(=O)Nc2ccccc2N1C(=O)Cn1cnc2ccccc2c1=O (stereo not shown) | 11.5 |

| SMILES | hERG current change (%, negative = inhibition) at 10uM [%] |
| --- | --- |
| CCN(CC)C(=O)c1sc(NC(=O)c2ccc(C)c([N+](=O)[O-])c2)c(C#N)c1C | 15.4 |
| COC(=O)c1ccc(CSc2ncnc3c2nnn3-c2ccc(F)cc2)o1 | 1.31 |
| CN(C)c1ccc(C2OC(=O)C(C)(C)C(=O)C2(C)C)cc1 (stereo not shown) | 16.4 |
| Cc1ccc(N2C(=O)C3C4CC(=O)C(c5ccccc54)C3C2=O)cc1C (stereo not shown) | -12.3 |
| CCn1ncc(/C=N\NC(=O)c2cc(-c3ccc(C)cc3C)nc3ccccc23)c1C | -8.84 |
| COc1cc(NC(=O)Cc2ccc(OC)c(S(=O)(=O)N3CCOCC3)c2)c(OC)cc1Cl | -25.1 |
| CCCCONc1ncnc2nonc12 | 2.78 |
| CCN(CC)C(=O)Cc1cn(C)c2ccccc12 | 16.8 |
| Cc1nn(-c2ccccc2)c(C)c1S(=O)(=O)O | 1.05 |
| COc1ccc(/C=C/C(=O)CCC(=O)O)cc1 | 17.5 |
| Cc1cccc(C2N=C(N)Nc3nc4ccccc4n32)c1 (stereo not shown) | 4.65 |
| COc1ccc(C(=O)NC2CCCCCC2)cc1OC1CCN(C(C)=O)CC1 | -4.48 |
| CCOc1ccc(NC(=O)NCCCCc2ccccc2)cc1 | 18.4 |
| COc1cc(OC)cc(C(=O)NC(C(=O)Nc2ccc3c(c2)OCCO3)C(C)C)c1 (stereo not shown) | -11 |
| O=C(CSc1nnc(-c2ccco2)o1)NC1CCCCCC1 | -22.7 |
| O=C1C2CCCN2C(c2ccccc2)N1c1cccc(Cl)c1 (stereo not shown) | -7.9 |
| COCc1cc(=O)[nH]c(/N=C(\N)Nc2cccc(Cl)c2)n1 | 21 |
| CC(C)Sc1nc(SCC(=O)O)c2c3c(sc2n1)COC(C)(C)C3 | -6.1 |
| Cc1cccc(NC(=O)CCOc2ccccc2)c1C | -10.5 |
| COc1ccc([N+](=O)[O-])cc1N(CC(=O)NCC1CCCO1)S(C)(=O)=O (stereo not shown) | 11.4 |
| CCCCN1C(=O)C(NC(=O)C2CC2)(C(F)(F)F)C2=C1CC(C)(C)CC2=O (stereo not shown) | 10.9 |
| C/C(=N\NC(=O)c1ccccc1Br)c1ccc(N2CCOCC2)cc1 | 7.65 |
